Among all 48,000 compounds or so, about 450 (0.94%) were called active. Another 19% or so got no clear call; they are omitted. Calls follow the shape of the dose curve; as a rule, active = well fitted inhibition curve with a large enough effect; inconclusive = small, poorly fitted or top-dose-only effect; inactive = no such curve, though single readings can be large or run the other way. This is one part of the list.
Assay: Primary qHTS for Identification of Small Molecule Inhibitors of Huntingtin Promoter Activity; also: nearly all actives have a fitted effect of over 50% in size
Settings: HEK293 HTT promoter firefly luciferase reporter (activity 0% = vehicle and -100% = no light), 24 h; series mostly up to 57.5 µM; activity change, negative = inhibition: at the top concentration
How it was run: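 Quantitative HTS used concentration series of up to 57.5 uM final on HEK293 luciferase reporter cells, 24 h at 37 degrees C. Readout was Dual-Glo firefly luminescence.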

Activity change, negative = inhibition, inactive:
Cc1ccc(NS(=O)(=O)c2ccc3[nH]c4c(c3c2)CCCC4)c(C)c1 -20.9%
CCc1ccc(Oc2nc3c(C)cccn3c(=O)c2/C=C(\C#N)c2nc3ccccc3[nH]2)cc1 -10.8%
COc1cc(-c2noc(CSc3nc(-c4ccccc4)cc(=O)[nH]3)n2)cc(OC)c1OC 7.19%
Cc1ccc(-n2nc(C)c3c(C)cc(=O)n(CC(=O)Nc4ccc(Br)cc4F)c32)cc1 2.82%
Cc1cc(=O)n2[nH]c(NCc3ccc(F)cc3)nc2n1 -28.9%
O=C(CCCn1c(=O)c2cccn2c2ccc(F)cc21)NCCc1ccccc1 -2.18%
Cc1ccc(Cl)cc1NC(=O)Nc1c(C)n(C)n(-c2ccccc2)c1=O -13.7%
CCOC(=O)CSc1nc2ccc(NC(=O)c3ccc(F)cc3)cc2s1 0.828%
COc1ccc(NC(=O)Cn2cc(S(=O)(=O)c3ccc(C)cc3)c(=O)c3ccccc32)cc1OC -11%
Cc1ccc(CSCC(=O)NCc2ccc(F)cc2)cc1 -20.3%
COc1ccc(-c2noc(-c3ccc(NCc4ccco4)c([N+](=O)[O-])c3)n2)cc1 -7.93%
CCc1nnc(SCC(=O)N(C)c2ccccc2)c2cc3sccc3n12 1.9%
CC1=C(C(=O)Nc2cccnc2)C(c2cccc(O)c2)n2nc(SCc3ccccc3)nc2N1 (stereo not given) -13.2%
CCCn1c(=O)n(-c2cc(Cl)c(OC)cc2OC)c(=O)c2c3c(sc21)CN(C(C)=O)CC3 2.62%
Cc1ccc([C@H]2Nc3ccc(S(=O)(=O)Nc4cccc(Cl)c4C)cc3[C@H]3C=CC[C@H]32)cc1 -16.9%
CCn1cc(CCC(=O)NCc2ccc(F)cc2)c2ccccc21 -10.9%
Cc1ccc(Nc2nnc(-c3ccc(C)c(S(=O)(=O)N4CCN(C)CC4)c3)c3ccccc23)c(C)c1 8.19% [at 11.5 µM]
CCOc1ccccc1CNC(=O)C1CCN(C2=NS(=O)(=O)C(c3ccc(C)c(C)c3)=C2C)CC1 -22.1%
CCCN(C(=O)c1nn(-c2ccc(OC)c(Cl)c2)c(=O)c2c1c1ccccc1n2C)c1ccccc1F -6.33%
CCOc1ccc(C(=O)NCCc2csc(-c3ccc(C(F)(F)F)cc3)n2)cc1OCC 0.857%
COc1ccc(C(=O)Nc2cc(C(C)C)c(O)c(S(=O)(=O)c3ccc(OC)cc3)c2C)cc1 30.4%
COc1cccc(NC(=O)c2sc3nc(C)c(C(=O)Nc4ccc(C)cc4C)c(-c4sccc4C)c3c2N)c1 1.68%
O=c1c2oc3ccccc3c2n(Cc2cccc(F)c2)c(=O)n1Cc1ccco1 -11%
CC(C)c1ccc2oc(-c3cc(NC(=O)c4cccs4)ccc3Cl)nc2c1 -18.1%
Cc1ccc(Cl)cc1N1CCN(C(=O)C2CCCN(S(=O)(=O)c3ccc(Br)s3)C2)CC1 (stereo not given) -29.9%

— PubChem BioAssay AID1508623 (National Center for Advancing Translational Sciences (NCATS), 2021)
